Test results taken from article PMC4336329 (PLoS ONE, 2015).
Out of some 310,000 compounds screened, about 14,000 (4.5%) showed an effect of 50% or more. The effect is printed as a negative number. The list shows a part of the results.

Each compound was assayed against human ether-à-go-go-related gene (hERG) potassium channel (human, UniProt Q12809) (assay: primary screen, population patch clamp on CHO cells stably expressing hERG).
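Also: peak tail current of the secondary pulse compared with the same well before compound.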

human ether-à-go-go-related gene (hERG) potassium channel, sequence (Q12809 whole entry, looked up): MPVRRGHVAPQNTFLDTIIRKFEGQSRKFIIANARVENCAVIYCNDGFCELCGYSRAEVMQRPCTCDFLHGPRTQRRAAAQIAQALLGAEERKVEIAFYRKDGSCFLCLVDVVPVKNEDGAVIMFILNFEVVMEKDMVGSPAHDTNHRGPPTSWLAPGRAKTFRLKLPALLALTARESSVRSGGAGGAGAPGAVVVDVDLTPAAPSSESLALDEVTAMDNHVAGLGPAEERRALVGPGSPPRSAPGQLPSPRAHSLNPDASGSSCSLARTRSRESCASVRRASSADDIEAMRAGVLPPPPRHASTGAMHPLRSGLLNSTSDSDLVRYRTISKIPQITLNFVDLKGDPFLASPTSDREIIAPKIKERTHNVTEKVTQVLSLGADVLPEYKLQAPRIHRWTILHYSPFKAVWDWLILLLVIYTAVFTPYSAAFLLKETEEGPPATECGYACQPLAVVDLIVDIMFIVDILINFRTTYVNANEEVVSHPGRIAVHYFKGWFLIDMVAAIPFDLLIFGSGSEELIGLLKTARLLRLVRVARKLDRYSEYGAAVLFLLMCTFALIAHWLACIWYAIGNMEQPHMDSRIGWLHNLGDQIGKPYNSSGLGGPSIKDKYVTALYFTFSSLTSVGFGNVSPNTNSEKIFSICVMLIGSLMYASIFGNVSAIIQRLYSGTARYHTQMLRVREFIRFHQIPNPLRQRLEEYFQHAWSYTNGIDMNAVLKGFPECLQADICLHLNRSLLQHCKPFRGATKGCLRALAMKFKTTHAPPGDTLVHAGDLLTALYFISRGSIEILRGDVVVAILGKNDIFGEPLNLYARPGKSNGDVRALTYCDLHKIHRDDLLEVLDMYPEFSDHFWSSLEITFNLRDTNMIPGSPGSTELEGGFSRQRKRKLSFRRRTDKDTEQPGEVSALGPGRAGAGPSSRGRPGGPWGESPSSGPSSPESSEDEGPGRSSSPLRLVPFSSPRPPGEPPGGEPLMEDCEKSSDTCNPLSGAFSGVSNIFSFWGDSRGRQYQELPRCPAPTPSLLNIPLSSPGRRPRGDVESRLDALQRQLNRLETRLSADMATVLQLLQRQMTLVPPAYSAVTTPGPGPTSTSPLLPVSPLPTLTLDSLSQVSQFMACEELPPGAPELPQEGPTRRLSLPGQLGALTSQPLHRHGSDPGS

| Structure (SMILES) | hERG current change (%, negative = inhibition) at 10uM |
| --- | --- |
| Cc1nnc(NC(=O)CSc2ncc(-c3ccccc3)[nH]2)s1 | 2.94% |
| CCc1cc(C(=O)N2CCCC(CO)(Cc3ccc(F)cc3)C2)n(C)n1 (centres unmarked) | -9.49% |
| CC(=O)c1[nH]c(C)c(C(=O)N2CCCC(Nc3cccc(F)c3)C2)c1C (centres unmarked) | 21.2% |
| Cc1cc(NC(=O)CCl)n(-c2nc3ccccc3s2)n1 | 9.06% |
| CCOC(=O)c1cc(NC(=O)Nc2nc3ccccc3s2)c(C)nc1C | 13% |
| COc1ccc(C2C(C(=O)NCCCN3CCOCC3)c3ccccc3C(=O)N2c2ccc(OC)cc2)cc1 (centres unmarked) | -0.81% |
| CC(C)(C)OC(=O)NCc1ccc(CNC(=O)c2nc[nH]c2C(=O)N2CCN(c3ccccc3)CC2)cc1 | -18.9% |
| COc1ccc(CNCCCSc2ncccn2)c(OC)c1.Cl | -11.6% |
| CCn1c(O)c(C2=c3ccccc3=NC2=O)c2cc(Br)ccc21 | 4.24% |
| COc1cccc(OCCn2cc(/C=N/NC(=O)c3ccncc3)c3ccccc32)c1 | -8.35% |
| COc1cc(C(=O)c2ccccc2Cl)c([N+](=O)[O-])cc1OC | -21% |
| CC(NC(=O)CSc1nc2ccccc2c(=O)n1CCCO)c1ccccc1 (centres unmarked) | -13.7% |
| CC(=O)C1=C(O)CCC1=N | 0.578% |
| Cc1ccc2nc(NC(=O)COC(=O)c3ccncc3)sc2c1 | -20.6% |
| CC(=O)Nc1ccc(NC(=O)CC23CC4CC(CC(C4)C2)C3)cc1 | 11.4% |
| CCOC(=O)C(=CNc1ncccc1C)C(=O)OCC | 1.51% |
| Cc1ccc(-n2c(O)c(/C=N/NC(=O)c3ccncc3)c(=O)[nH]c2=O)cc1C | 9.71% |
| CCOc1ccc(-n2cnnn2)cc1S(=O)(=O)Nc1c(C)cccc1C | -19.4% |
| O=C1CN(C(=O)c2ccco2)C(c2ccccc2)c2cc(Cl)ccc2N1 (centres unmarked) | -27.8% |

| Structure (SMILES) | hERG current change (%, negative = inhibition) at 10uM |
| --- | --- |
| CCc1nn(CC(=O)NCCc2ccc(S(N)(=O)=O)cc2)c(=O)c2cc3sccc3n12 | 20.1% |
| Cc1ccc(Nc2nc(N)c([N+](=O)[O-])c(NCc3ccccc3)n2)cc1 | 12.1% |
| Cc1n[nH]c(C)c1CCC(=O)N/N=C/c1c[nH]c2ccccc12 | -26.2% |
| COc1ccccc1NC(=O)c1nn(C)c(C(=O)Nc2ccccc2OC)c1[N+](=O)[O-] | 17.6% |
| CN(C)C(CNC(=O)c1cc(S(=O)(=O)N(C)c2ccccc2)ccc1Cl)c1cccs1 (centres unmarked) | -33.5% |
| CCN(CC(=O)Nc1c(F)cccc1F)C(=O)CCN1C(=O)c2cccc([N+](=O)[O-])c2C1=O | 16.2% |
| O=C1CCc2cc(S(=O)(=O)NC(Cc3ccccc3)C(=O)NCC3CCCO3)ccc2N1 (centres unmarked) | 19.5% |
| CSc1nnc(N2C(=O)C(O)=C(C(=O)c3ccc(C)o3)C2c2ccc(C)cc2)s1 (centres unmarked) | 4.28% |
| Cc1ccc(-c2cn(S(=O)(=O)c3cccc([N+](=O)[O-])c3)nc2N)cc1 | 15.3% |
| O=C(CSc1nnc(C2CC2)n1C1CC1)c1ccccc1F | -7.69% |
| COC(=O)N/N=C(\C)c1ccc(Br)cc1 | 11.6% |
| CC1(C)CC(=O)C=C(NC2=CC3OC(c4ccccc4)OCC3OC2=O)C1 (centres unmarked) | -0.196% |
| COc1ccc(CC(=O)NNC(=S)Nc2ccc(Br)cc2)cc1 | 13.8% |
| Cc1[nH]c(=O)[nH]c(=O)c1N1CCOCC1 | 5.33% |
| CS(=O)(=O)NNC(=O)Cn1nnc(-c2ccc(OCc3ccccc3Cl)cc2)n1 | 18% |
| CCN(CCCNC(=O)C1CCN(S(=O)(=O)c2cnc[nH]2)CC1)c1ccccc1 | 26.1% |
| COc1cc2c(cc1OC)CN(S(=O)(=O)c1cccc(F)c1)CC2 | 18.6% |
| COc1ccc(C(=O)CCN2CCN(c3ccccc3F)CC2)cc1.Cl | -71.5% |
| CC(=O)N1c2ccc(S(=O)(=O)N3CCC(C(=O)NCc4ccc(F)cc4)CC3)cc2CC1C (centres unmarked) | 4.87% |

| Structure (SMILES) | hERG current change (%, negative = inhibition) at 10uM |
| --- | --- |
| O=C(CSc1nnc(CNC(=O)c2ccccc2)o1)c1ccc(Cl)cc1 | -30.3% |
| Cc1cc(NC(=O)CSc2nnc(Nc3ccccc3F)s2)no1 | 18.6% |
| CCCCNC(=O)CCSc1nc2nc(C)cc(C)n2n1 | 10.1% |
| O=C(Nc1cnccn1)c1csc2ccccc12 | 12.2% |
| Cc1ccc(C2C(=O)N(C3CCCC3)CC(=O)N2C2CCCCC2)cc1 (centres unmarked) | -25.4% |
| COc1c(C)cc(C(=O)C2CCCN(C(=O)CCCn3cncn3)C2)cc1C (centres unmarked) | -0.109% |
| O=C(CN1CCN(Cc2ccc(Cl)cc2)CC1)N/N=C/c1cccs1 | -67.2% |
| Cc1cnc(C(=O)NC2CCSc3ccccc32)cn1 (centres unmarked) | 11% |
| CCOc1ccc(NC(=O)CC2Nc3ccccc3NC2=O)cc1 (centres unmarked) | 11.4% |
| CCC(C(=O)N1CCC2(CC1)OCCO2)c1ccccc1 (centres unmarked) | -7.86% |
| CCN(CC)c1nc(N)c([N+](=O)[O-])c(NCCO)n1 | 12.1% |
| Cc1c(CCO)c(=O)[nH]n1C(=O)c1ccc(F)cc1 | 29.9% |
| Cc1nn(C)c(Cl)c1CN1CCCC(C(=O)Nc2ccc(-c3cscn3)cc2)C1 (centres unmarked) | -7.54% |
| Cc1sc2ncnc(N=Nc3c(O)[nH]c4ccccc34)c2c1C | 17.5% |
| CC(C)(C)NC(=O)COC(=O)c1ccccc1OCC(=O)Nc1ccc(Br)cc1 | 11.4% |
| Cc1cnc(C(=O)Nc2ccc(OC(F)(F)F)cc2)cn1 | -9.93% |
| Cc1cc(C(C)(C)C)oc1C(=O)N(CC(=O)NC1CCCC1)c1c(C)cccc1C | -4.68% |
| Cc1cccc(NC(=O)CCS(=O)(=O)c2ccccc2)c1 | 10.4% |
